# In all, about 33,000 sequences were measured (“E-score (-0.5 to 0.5)”: median about -0.016, highest 2% from about 0.32 on). The list shows a part of the results.
# Target: T1, Stp1 (UniProt B3LFK1)
# T1 sequence: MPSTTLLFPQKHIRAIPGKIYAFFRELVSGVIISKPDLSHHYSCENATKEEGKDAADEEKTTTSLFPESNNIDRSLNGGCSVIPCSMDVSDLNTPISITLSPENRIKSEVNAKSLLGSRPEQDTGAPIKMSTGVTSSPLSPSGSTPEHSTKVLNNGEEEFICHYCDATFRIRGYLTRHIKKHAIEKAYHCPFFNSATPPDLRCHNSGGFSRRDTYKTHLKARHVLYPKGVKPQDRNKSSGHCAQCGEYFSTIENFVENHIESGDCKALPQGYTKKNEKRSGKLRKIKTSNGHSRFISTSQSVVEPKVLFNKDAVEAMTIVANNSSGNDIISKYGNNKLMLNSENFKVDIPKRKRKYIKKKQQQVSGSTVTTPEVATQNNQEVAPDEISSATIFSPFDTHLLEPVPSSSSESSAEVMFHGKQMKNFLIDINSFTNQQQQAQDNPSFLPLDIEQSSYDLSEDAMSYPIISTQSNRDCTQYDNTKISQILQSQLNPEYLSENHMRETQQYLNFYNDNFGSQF
# Experiment: PBM E-score (8-mer binding enrichment) (E-score (-0.5 to 0.5)); higher = stronger / more preferred TF binding; most listed sequences are background and not binding sites
# Conditions: protein concentration: 200 nM; construct: GST-full length
# Method in brief: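 E-scores (a modified Wilcoxon-Mann-Whitney statistic) were assigned by the Universal PBM Analysis Suite to every ungapped eight-base word pooled with its reverse complement. The input came from universal all-10-mer Agilent arrays made double-stranded by primer extension and probed with GST-tagged yeast transcription factors at about 100-200 nM. Fluorescent anti-GST detected bound protein, and masliner normalised the scans.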
row,Sequence,PBM E-score
1,CGTTACAG,-0.00637
2,CCAACAAG,0.00906
3,GTAATGTA,-0.0604
4,AGTGGTCC,-0.116
5,CCTGGTAC,0.0102
6,CTATTTTA,0.00178
7,ATCGTTAA,-0.0863
8,CGTTGGCC,-0.124
9,ACCCTGTA,-0.103
10,AAGGCTAG,0.0823
11,CAGAGGGG,-0.311
12,CTCTATTA,0.0457
13,ACTGTACT,-0.156
14,ATCATGTC,0.00425
15,ATAATAGG,0.035
16,GGGAACAA,-0.0413
17,CGAGGGAA,-0.0331
18,CTATTGGC,-0.00467
19,GAGTGAGC,-0.123
20,AGTCCGCG,0.0108
21,AAGGTCAG,-0.212
22,CGGGTTAG,-0.232
23,AATTGAGC,0.0156
24,CCAACTCC,-0.00244
25,TCGGGGAA,-0.0714

row,Sequence,PBM E-score
1,CCCACGAC,-0.235
2,ACACTGTC,-0.0844
3,ACGAAGAT,0.111
4,CGCATAGC,0.0422
5,GCGGAGCA,0.0438
6,AAGCACTC,-0.0548
7,AATTTCAC,0.122
8,ACTCGTCT,-0.0843
9,ACATCTTA,-0.0452
10,GGACATCC,-0.0445
11,ACAGCAGA,-0.101
12,CCAAAGGG,-0.0374
13,CCTACACG,-0.112
14,CCTTGCGC,0.138
15,GAGTCTAC,-0.203
16,CAGGGGGA,-0.414
17,ATGTTGAC,0.0447
18,CTATGCTA,-0.0393
19,ATATCGAT,0.127
20,AAAGCTTC,-0.205
21,GCTTCCCA,-0.0996
22,CTATCAAC,0.11
23,TTAATGAA,0.216
24,GTTGACGA,-0.118
25,CACCATAC,-0.0768

row,Sequence,PBM E-score
1,ATAAATTA,0.281
2,ACCAGTCA,-0.00407
3,CAAATTTG,0.0919
4,TACACCCA,-0.231
5,GGCGTTTA,0.337
6,GTTTACTA,0.164
7,CAGTGCAA,-0.028
8,GTTTCTAA,0.175
9,CGTATGTC,0.123
10,ACTATCTC,0.0706
11,AAGTTAAC,0.125
12,CCAATCCC,-0.246
13,CAACTCTC,-0.183
14,GTCTAACA,-0.0907
15,CGGAACGA,0.0736
16,ATTGAGTC,-0.146
17,GTCTACGA,-0.24
18,AGTTGTCC,-0.143
19,AAATTGCA,-0.024
20,CACGTTCA,-0.126
21,CCCGGTTC,-0.157
22,AAACCGCA,-0.0456
23,GACCCTGA,-0.256
24,TCGGGACA,-0.174
25,AGTAGGTG,-0.132

row,Sequence,PBM E-score
1,CATCTATC,0.16
2,TGCAGAAA,0.208
3,AGGACAAA,0.138
4,GCGCGATA,0.316
5,ATCTTCAC,0.0358
6,ACGCTTCA,-0.0376
7,CCCTACAG,-0.178
8,GATTCAGA,0.0318
9,CCGGCTTA,-0.24
10,AAACCCGT,0.106
11,GACCGCTC,-0.203
12,CTCTCCAG,-0.168
13,ACGGTGTC,-0.0106
14,CGATCTGA,-0.235
15,ACAGCGGC,0.127
16,ACATATGT,0.0136
17,AGCTCCCC,-0.293
18,AAGATATT,0.0449
19,GTATGTTA,0.0941
20,GATTAGTA,0.00337
21,CGACTCGC,-0.154
22,ACCTCCGG,-0.242
23,AGAATCCA,-0.169
24,GAGAATTA,-0.105
25,ACCAGACC,-0.143

row,Sequence,PBM E-score
1,CCAACGAC,-0.0247
2,ATAACGAC,0.0628
3,TAAAACAA,0.157
4,GGGGAATA,-0.302
5,GATTAATA,0.211
6,CGATAAAC,0.0166
7,GTCTCAGA,-0.0609
8,GCTTGCCC,-0.152
9,GCGTCAGC,-0.0592
10,CGCTATAC,-0.145
11,AGGCTACC,-0.157
12,ATGTTTTG,0.127
13,CAGTACGG,0.141
14,GATTGGGC,0.0267
15,GGAAAACA,0.0206
16,CTCTATCA,-0.129
17,ACTGACCT,-0.181
18,CAAACGTA,0.131
19,GTACCGTA,0.0706
20,GGGGCGAA,0.0031
21,AGAGTATC,0.0961
22,GGATGGCA,0.246
23,GGCTTACA,0.0161
24,TACGTATA,0.168
25,AAGGGACA,-0.0629

row,Sequence,PBM E-score
1,AAAGCAAT,0.175
2,AACACAAC,0.12
3,AAATACCA,0.0187
4,GAAGCTAC,-0.12
5,TGTCCTAA,0.135
6,ACAACTGA,0.0794
7,ACAACTCT,-0.0697
8,ACCGGTGA,-0.0475
9,CCCACACG,0.131
10,AGGTTTTG,-0.0629
11,CACCCCCG,-0.233
12,ATCTACCC,-0.129
13,CCATTACG,-0.0772
14,GCCCTCCA,-0.0721
15,ACCTCCGA,-0.308
16,ATTGTGTG,-0.0138
17,ACTGTGCG,0.0487
18,GCCGAGTA,0.0791
19,ATCCAACA,0.0711
20,CCTGTATC,0.0768
21,ATCTAAGC,-0.0654
22,ATGTTGCG,0.171
23,CATACTAG,-0.103
24,AGGTACCA,-0.236
25,AGATCAAC,-0.029

row,Sequence,PBM E-score
1,AACGGGGG,-0.316
2,ATGGTGTG,-0.0421
3,ACTTCCAC,-0.0256
4,GCTTTCAC,-0.0933
5,ACGAGGCC,0.016
6,AAGGGAAA,0.0605
7,CCGAAGCG,-0.0733
8,ATACCAGA,-0.0175
9,ACCAGACG,-0.0112
10,GGTGCAAA,-0.00393
11,GGGCCGGA,-0.0663
12,AGTATGGA,0.0327
13,AGCCCGTG,-0.0717
14,CACGATGA,0.0781
15,ACGTACGA,-0.0101
16,ATGGCGAG,-0.138
17,CAGCCGTA,0.306
18,ACCCTCCT,-0.234
19,GATTGAGC,-0.0505
20,CAGTAGCA,0.00349
21,GTTAAAGA,0.133
22,AATCAGGC,-0.0126
23,GCTCAACC,-0.0201
24,GAAATTGA,0.154
25,AAGAGAAA,0.0422

row,Sequence,PBM E-score
1,AGTAAGAA,0.11
2,CTAGCTGA,-0.11
3,TGCGGGAA,0.0556
4,AGTTATCC,-0.109
5,ACGTGTCC,-0.213
6,AATACCAG,0.00341
7,AACCGCTG,-0.21
8,CCAAACAC,0.0602
9,GCGTGGGA,-0.0429
10,AAGACCTG,-0.307
11,AAAGCGAG,0.0598
12,GCATTCTA,0.118
13,CGAAAGGA,-0.102
14,AAAGCACG,0.0591
15,CACCCCCA,-0.371
16,GAAGTGCC,0.309
17,ATATCGTG,0.073
18,AATGGCCG,0.108
19,AAGGAACA,-0.0527
20,CTCTCGTC,-0.13
21,CGCACATC,-0.0745
22,TGGTTAAA,0.0931
23,CTCAGAGA,0.0644
24,CATTTAGA,0.0352
25,ACTTTCCA,-0.0594

row,Sequence,PBM E-score
1,TATGCATA,0.00403
2,GTCATCCA,-0.178
3,ATTCGGCC,-0.109
4,GGGATTAC,-0.352
5,CCTCTACC,-0.24
6,ACCTTTCT,-0.0776
7,ATAAATGC,0.262
8,CTTGTGCC,0.151
9,ATAATTAT,0.272
10,ATGCTTTG,0.0447
11,CGTAAAAA,0.11
12,AGACACAA,0.154
13,AGGACCCT,-0.253
14,GTGAATAA,0.109
15,ATTGGGAC,-0.212
16,ACACTGCC,0.25
17,CTCACGGA,0.0462
18,ATTGTATC,0.0957
19,CCCCAGGC,-0.428

# — the supplement of paper PMC3334620
